# Measurements: the supplement of paper PMC8728848
# This is one part of the list.
# Legend:
# Experiment in all cases: glycan array binding signal (z-score within array); higher = stronger binding
# Details in all cases: glycan notation: IUPAC condensed, linker removed
# [1] = molecular target: Fuc(a1-2)[GalNAc(b1-3)]Gal
# Summary of the method: (§1)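 From the Consortium for Functional Glycomics database, 3228 arrays were curated, keeping only those whose protein sequence was available. Binding is given as a within-array Z-score averaged across arrays sharing a protein sequence and across linkers. Negative Z-scores can be read as non-binding.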
# Fuc(a1-3)GlcNAc = molecular target: Fuc(a1-3)GlcNAc
# Summary of the method: as §1
# [2] = molecular target: Fuc(a1-3)[Gal(b1-4)]Glc6S
# Summary of the method: as §1
# [3] = molecular target: Fuc(a1-3)[Gal(b1-4)]GlcNAc
# Summary of the method: as §1
# [4] = molecular target: Fuc(a1-3)[Gal(b1-4)]GlcNAc(b1-2)Man
# Summary of the method: as §1
# [5] = molecular target: Fuc(a1-3)[Gal(b1-4)]GlcNAc(b1-2)Man(a1-3)[Fuc(a1-3)[Gal(b1-4)]GlcNAc(b1-2)Man(a1-6)]Man(b1-4)GlcNAc(b1-4)GlcNAc
# Summary of the method: as §1
# [6] = molecular target: Fuc(a1-3)[Gal(b1-4)]GlcNAc(b1-2)Man(a1-3)[Fuc(a1-3)[Gal(b1-4)]GlcNAc(b1-2)Man(a1-6)]Man(b1-4)GlcNAc(b1-4)[Fuc(a1-6)]GlcNAc
# Summary of the method: as §1
# [7] = molecular target: Fuc(a1-3)[Gal(b1-4)]GlcNAc(b1-3)Gal(b1-3)[Fuc(a1-4)]GlcNAc
# Summary of the method: as §1
# [8] = molecular target: Fuc(a1-3)[Gal(b1-4)]GlcNAc(b1-3)Gal(b1-4)[Fuc(a1-3)]GlcNAc
# Summary of the method: as §1
# [9] = molecular target: Fuc(a1-3)[Gal(b1-4)]GlcNAc(b1-3)Gal(b1-4)[Fuc(a1-3)]GlcNAc(b1-3)Gal(b1-4)[Fuc(a1-3)]GlcNAc
# Summary of the method: as §1
# [10] = molecular target: Fuc(a1-3)[Gal(b1-4)]GlcNAc(b1-3)GalNAc
# Summary of the method: as §1
# [11] = molecular target: Fuc(a1-3)[Gal(b1-4)]GlcNAc(b1-6)GalNAc
# Summary of the method: as §1
# [12] = molecular target: Fuc(a1-3)[Gal(b1-4)]GlcNAc(b1-6)[Gal(b1-3)GlcNAc(b1-3)]Gal(b1-4)Glc
# Summary of the method: as §1
# [13] = molecular target: Fuc(a1-3)[Gal(b1-4)]GlcNAc6S
# Summary of the method: as §1
# [14] = molecular target: Fuc(a1-3)[Gal3S(b1-4)]Glc
# Summary of the method: as §1
# [15] = molecular target: Fuc(a1-3)[Gal3S(b1-4)]GlcNAc
# Summary of the method: as §1
# [16] = molecular target: Fuc(a1-3)[Gal3S(b1-4)]GlcNAc6S
# Summary of the method: as §1
# [17] = molecular target: Fuc(a1-3)[GalNAc(b1-4)]GlcNAc
# Summary of the method: as §1
# [18] = molecular target: Fuc(a1-3)[GalNAc(b1-4)]GlcNAc6S
# Summary of the method: as §1
# Fuc(a1-4)GlcNAc = molecular target: Fuc(a1-4)GlcNAc
# Summary of the method: as §1
# Fuc(b1-3)GlcNAc = molecular target: Fuc(b1-3)GlcNAc
# Summary of the method: as §1
# Gal(a1-2)Gal = molecular target: Gal(a1-2)Gal
# Summary of the method: as §1
# Gal(a1-3)Gal = molecular target: Gal(a1-3)Gal
# Summary of the method: as §1
# Gal(a1-3)Gal(b1-3)GlcNAc = molecular target: Gal(a1-3)Gal(b1-3)GlcNAc
# Summary of the method: as §1
# [19] = molecular target: Gal(a1-3)Gal(b1-3)GlcNAc(b1-2)Man
# Summary of the method: as §1
# [20] = molecular target: Gal(a1-3)Gal(b1-3)GlcNAc(b1-2)Man(a1-3)[Gal(a1-3)Gal(b1-3)GlcNAc(b1-2)Man(a1-6)]Man(b1-4)GlcNAc(b1-4)GlcNAc
# Summary of the method: as §1
# [21] = molecular target: Gal(a1-3)Gal(b1-3)GlcNAc(b1-3)GalNAc
# Summary of the method: as §1
# [22] = molecular target: Gal(a1-3)Gal(b1-3)GlcNAc(b1-6)GalNAc
# Summary of the method: as §1
# [23] = molecular target: Gal(a1-3)Gal(b1-3)[Fuc(a1-4)]GlcNAc(b1-2)Man(a1-3)[Gal(a1-3)Gal(b1-3)[Fuc(a1-4)]GlcNAc(b1-2)Man(a1-6)]Man(b1-4)GlcNAc(b1-4)GlcNAc
# Summary of the method: as §1
# Gal(a1-3)Gal(b1-4)Glc = molecular target: Gal(a1-3)Gal(b1-4)Glc
# Summary of the method: as §1
# Gal(a1-3)Gal(b1-4)GlcNAc = molecular target: Gal(a1-3)Gal(b1-4)GlcNAc
# Summary of the method: as §1
# [24] = molecular target: Gal(a1-3)Gal(b1-4)GlcNAc(b1-2)Man
# Summary of the method: as §1
# [25] = molecular target: Gal(a1-3)Gal(b1-4)GlcNAc(b1-2)Man(a1-3)[Gal(a1-3)Gal(b1-4)GlcNAc(b1-2)Man(a1-6)]Man(b1-4)GlcNAc(b1-4)GlcNAc
# Summary of the method: as §1
# [26] = molecular target: Gal(a1-3)Gal(b1-4)GlcNAc(b1-3)GalNAc
# Summary of the method: as §1
# [27] = molecular target: Gal(a1-3)Gal(b1-4)GlcNAc(b1-6)GalNAc
# Summary of the method: as §1
# [28] = molecular target: Gal(a1-3)Gal(b1-4)[Fuc(a1-3)]GlcNAc
# Summary of the method: as §1
# [29] = molecular target: Gal(a1-3)Gal(b1-4)[Fuc(a1-3)]GlcNAc(b1-2)Man(a1-3)[Gal(a1-3)Gal(b1-4)[Fuc(a1-3)]GlcNAc(b1-2)Man(a1-6)]Man(b1-4)GlcNAc(b1-4)GlcNAc
# Summary of the method: as §1
# Gal(a1-3)GalNAc = molecular target: Gal(a1-3)GalNAc
# Summary of the method: as §1
# [30] = molecular target: Gal(a1-3)[Gal(a1-4)]Gal(b1-4)GlcNAc
# Summary of the method: as §1
# [31] = molecular target: Gal(a1-4)Gal(b1-3)GlcNAc(b1-2)Man(a1-3)[Gal(a1-4)Gal(b1-3)GlcNAc(b1-2)Man(a1-6)]Man(b1-4)GlcNAc(b1-4)GlcNAc
# Summary of the method: as §1
# Gal(a1-4)Gal(b1-4)Glc = molecular target: Gal(a1-4)Gal(b1-4)Glc
# Summary of the method: as §1
# Gal(a1-4)Gal(b1-4)GlcNAc = molecular target: Gal(a1-4)Gal(b1-4)GlcNAc
# Summary of the method: as §1
# [32] = molecular target: Gal(a1-4)Gal(b1-4)GlcNAc(b1-2)Man(a1-3)[Gal(a1-4)Gal(b1-4)GlcNAc(b1-2)Man(a1-6)]Man(b1-4)GlcNAc(b1-4)GlcNAc
# Summary of the method: as §1
# [33] = molecular target: Gal(a1-4)Gal(b1-4)GlcNAc(b1-3)Gal(b1-4)Glc
# Summary of the method: as §1
# Gal(a1-4)GlcNAc = molecular target: Gal(a1-4)GlcNAc
# Summary of the method: as §1
binder,measurement,setting,value
APVPVTKLVCDGDTYKCTAYLDFGDGRWVAQWDTNVFHTG [PhoSpL (Pholiota squarrosa)],glycan array binding signal (z-score),[1],-0.219
same,glycan array binding signal (z-score),Fuc(a1-3)GlcNAc,-0.427
same,glycan array binding signal (z-score),[2],-0.01
same,glycan array binding signal (z-score),[3],-0.102
same,glycan array binding signal (z-score),[4],-0.336
same,glycan array binding signal (z-score),[5],-0.201
same,glycan array binding signal (z-score),[6],0.115
same,glycan array binding signal (z-score),[7],0.149
same,glycan array binding signal (z-score),[8],0.155
same,glycan array binding signal (z-score),[9],-0.179
same,glycan array binding signal (z-score),[10],-0.025
same,glycan array binding signal (z-score),[11],-0.044
same,glycan array binding signal (z-score),[12],0.04
same,glycan array binding signal (z-score),[13],-0.386
same,glycan array binding signal (z-score),[14],-0.011
same,glycan array binding signal (z-score),[15],-0.157
same,glycan array binding signal (z-score),[16],-0.255
same,glycan array binding signal (z-score),[17],0.075
same,glycan array binding signal (z-score),[18],-0.004
same,glycan array binding signal (z-score),Fuc(a1-4)GlcNAc,-0.128
same,glycan array binding signal (z-score),Fuc(b1-3)GlcNAc,-0.271
same,glycan array binding signal (z-score),Gal(a1-2)Gal,-0.168
same,glycan array binding signal (z-score),Gal(a1-3)Gal,0.196
same,glycan array binding signal (z-score),Gal(a1-3)Gal(b1-3)GlcNAc,-0.254
same,glycan array binding signal (z-score),[19],-0.221
same,glycan array binding signal (z-score),[20],0.324
same,glycan array binding signal (z-score),[21],-0.303
same,glycan array binding signal (z-score),[22],-0.023
same,glycan array binding signal (z-score),[23],-0.042
same,glycan array binding signal (z-score),Gal(a1-3)Gal(b1-4)Glc,0.101
same,glycan array binding signal (z-score),Gal(a1-3)Gal(b1-4)GlcNAc,-0.143
same,glycan array binding signal (z-score),[24],-0.259
same,glycan array binding signal (z-score),[25],-0.429
same,glycan array binding signal (z-score),[26],0.034
same,glycan array binding signal (z-score),[27],-0.433
same,glycan array binding signal (z-score),[28],-0.533
same,glycan array binding signal (z-score),[29],0.563
same,glycan array binding signal (z-score),Gal(a1-3)GalNAc,-0.292
same,glycan array binding signal (z-score),[30],-0.257
same,glycan array binding signal (z-score),[31],-0.039
same,glycan array binding signal (z-score),Gal(a1-4)Gal(b1-4)Glc,-0.062
same,glycan array binding signal (z-score),Gal(a1-4)Gal(b1-4)GlcNAc,-0.29
same,glycan array binding signal (z-score),[32],0.1
same,glycan array binding signal (z-score),[33],-0.466
same,glycan array binding signal (z-score),Gal(a1-4)GlcNAc,0.167
